Assay results from the BET-seq Pho4 binding data (Le et al. 2018).
Some of the results follow. Values were computed here from the reads of four pooled replicates and scatter widely.

target: T1, Pho4 (S. cerevisiae) (UniProt P07270); assay: relative binding free energy (BET-seq); higher = weaker binding; settings: reference: library average
T1 sequence: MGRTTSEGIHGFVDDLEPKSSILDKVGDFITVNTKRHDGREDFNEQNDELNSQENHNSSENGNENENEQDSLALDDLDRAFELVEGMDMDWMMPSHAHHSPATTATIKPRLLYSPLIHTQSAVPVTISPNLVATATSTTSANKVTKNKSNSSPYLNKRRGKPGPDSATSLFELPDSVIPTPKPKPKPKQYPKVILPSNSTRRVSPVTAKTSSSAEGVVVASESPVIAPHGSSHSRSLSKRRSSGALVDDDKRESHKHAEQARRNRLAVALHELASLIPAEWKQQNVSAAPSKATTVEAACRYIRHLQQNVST

Sequence	relative binding free energy [kcal/mol]
GATTGCACGTGGGGGG	-0.07
CTGTGCACGTGGGTCT	-0.15
TTAAACACGTGGGTAT	-0.12
ATGATCACGTGGTGGG	0.18
GTGTCCACGTGGTGGA	-0.08
TCGTGCACGTGATCGG	0.24
GGGCCCACGTGGGTAG	-0.2
TCTTTCACGTGTCATT	0.2
CGAGGCACGTGGATGT	-0.11
GGGTGCACGTGTAGCC	0.19
GGGCGCACGTGGAGGT	-0.02
TGGGACACGTGATTAA	0.26
TTGGTCACGTGCAAGT	0.08
ATGTGCACGTGTTCTG	-0.01
CGGAGCACGTGAGAGG	0.22
TATAACACGTGTCGGG	0.01
GCTGGCACGTGTTATA	0
AGATGCACGTGTGTAC	0.08
TAGGTCACGTGGCTGT	0.01
TTTGGCACGTGTGTGT	0.02
TTAATCACGTGATAGG	0.19
AGGGACACGTGTATTA	0.02
ATGTCCACGTGAGGGG	0.2
AGTTGCACGTGTATAA	0.06
AACGTCACGTGGGAGG	0.11
ATGTGCACGTGGCTGA	0.01

Sequence	relative binding free energy [kcal/mol]
GCACACACGTGGGGGG	-0.23
CTTTACACGTGTTTTT	0.03
CATTGCACGTGGGGAG	-0.03
GTGGTCACGTGGGCAT	0.07
CCATGCACGTGGTGTT	-0.12
CGTTTCACGTGATAGG	0.31
AAAGACACGTGTTTGT	-0.07
TAGTTCACGTGTGGCG	0.18
AGATACACGTGCGGTT	-0.07
TATGCCACGTGTTGGG	-0.11
CTTGTCACGTGAAGAG	0.17
TAAGGCACGTGGGTTG	-0.11
CGGGCCACGTGTGGGT	0.03
TACGTCACGTGATAGG	0.17
TATGGCACGTGAACGG	0.1
TATTGCACGTGTAAAG	0.2
GAATTCACGTGGAGGG	0.27
TTGGACACGTGCGTTA	-0.07
TGGGACACGTGTGTTC	0.16
CTGGGCACGTGATAGG	-0.12
GGAAGCACGTGTTTTA	0.08
GTTATCACGTGTATTT	0.25
AGCTGCACGTGTTGGG	0
TGAAGCACGTGGTAAG	-0.14
AGTTGCACGTGATGCG	-0.1
TGACACACGTGTTTGT	0.03

Sequence	relative binding free energy [kcal/mol]
TTCATCACGTGAGGGT	0.39
GTTTACACGTGAGTGA	0.15
TAGGTCACGTGTAGTC	0.22
TTAGTCACGTGAAAAG	0.22
AGGTTCACGTGGAGCT	0.3
ATCGTCACGTGAAGGG	0.2
TGTCGCACGTGGGGAG	-0.25
TGCTGCACGTGCTGTG	-0.07
GGCTGCACGTGTATAT	0.15
CGTTTCACGTGGCATT	0.21
AGAATCACGTGGTATT	0.06
CGAGTCACGTGAGGGC	0.26
CTGATCACGTGTTAGG	0.12
TCGTGCACGTGAGGCA	0.35
TCCTTCACGTGTGGGG	0.29
GTGGACACGTGAGATG	0.25
CCGTGCACGTGTGGTT	-0.08
AGTGTCACGTGGGGGT	-0.05
TTTTACACGTGGCATT	-0.08
GTTTTCACGTGGTGGC	0.26
TATATCACGTGTTATA	0
CTGGTCACGTGGTCTG	0.05
GCTTTCACGTGCTTGT	0.2
TTGCGCACGTGTTGGC	0.04
ATGTTCACGTGGTACA	0.18
GGGTTCACGTGCCTGT	0.2

Sequence	relative binding free energy [kcal/mol]
TGGTTCACGTGCGCGT	0.17
ATTATCACGTGTTCTT	0.14
AGATTCACGTGTTATT	0.18
AGGCACACGTGTGCGG	-0.02
TGCTGCACGTGGGCAT	-0.22
GGAATCACGTGTAGAG	0.22
GTTAACACGTGTTGCG	-0.04
GAGGGCACGTGTGCGT	-0.01
ATGCTCACGTGTATTT	0.14
GGGTGCACGTGGCTTT	-0.09
TGTCACACGTGTGATA	0.23
ACTTACACGTGTGGAT	0.31
GTTGTCACGTGCAAGG	0.15
ATATTCACGTGGTATA	0.19
GGGGTCACGTGCAATT	0.19
AGGGGCACGTGGTGAT	-0.07
TTTAGCACGTGTTGAA	0.13
ACTTTCACGTGATGTG	0.14
GGCTTCACGTGTGAAG	0.16
AGGGTCACGTGGACAG	-0.12
AGGAGCACGTGTGCAG	0.1
GTGTGCACGTGTCTAT	0.08
CATGTCACGTGCGGGC	0.16
TTGTGCACGTGTTAGA	-0.07
TTCTGCACGTGTGCGT	-0.02
AAGTACACGTGATGTA	0.15

Sequence	relative binding free energy [kcal/mol]
TTTAGCACGTGGTAGG	-0.13
TTAGTCACGTGATTCT	0.23
GGTTTCACGTGCGAGC	0.4
ATATACACGTGCGGTT	0.08
GTCTTCACGTGTGGCG	0.38
GGTCGCACGTGGAGCG	0.01
CAAGTCACGTGGGAAG	0.1
AGATGCACGTGTTGCT	-0.05
ATTGGCACGTGTCAGA	-0.06
AAATGCACGTGAGGGG	0.18
TTTTTCACGTGATGAG	0.26
TGTGCCACGTGAGTAT	0.07
TGCGGCACGTGGCAAG	-0.25
AGTAGCACGTGTGTCT	-0.17
ATTCTCACGTGAGTTT	0.31
GAGTTCACGTGGGCTA	0.17
GATTTCACGTGGTATA	0.29
CGGTGCACGTGAGCTT	0.25
TAGTTCACGTGGAGAT	0.18
CCGTACACGTGGGGTT	-0.15
TAGGTCACGTGGGCGC	-0.04
GGGTACACGTGGGGTA	0
GGAGTCACGTGGGTTG	0.01
GGCGTCACGTGATGGG	0.39
GCTTACACGTGTGGAG	0.28
TATAACACGTGACGGT	0.24

Sequence	relative binding free energy [kcal/mol]
GGGTACACGTGCAAGG	0.04
TTGGGCACGTGGGTTC	-0.14
GTTTTCACGTGGCTAT	0.34
GAGGACACGTGTTAAG	0.23
CATTGCACGTGAGTTG	0.13
ATTTGCACGTGGGAGG	-0.1
GGGTCCACGTGATGTC	0.32
TTTTGCACGTGAGCGA	0.2
TCTGTCACGTGTGGAA	0.13
AAGAGCACGTGTGTAT	-0.12
TTCGCCACGTGTGGTG	-0.17
AAGGTCACGTGACTGG	0.18
TGAGGCACGTGAATTA	0.19
TTGGTCACGTGGCGGT	-0.02
TCTTGCACGTGATATG	0.1
CGATTCACGTGGGTAG	0.11
CTTTACACGTGTGGTG	0.02
TAGATCACGTGTCGGT	0.18
ATTTGCACGTGTGGCT	0.07
ACAATCACGTGGGGGT	0.03
GTTTGCACGTGAGGTT	0.3
CTGGTCACGTGGAAGT	0.18
TGACTCACGTGTAGGT	0.18
GCGATCACGTGTTTGG	0.17
AATGCCACGTGGATGG	-0.03
GGGCTCACGTGATAGG	0.4

Sequence	relative binding free energy [kcal/mol]
TATCTCACGTGTTGGC	0.2
TTTATCACGTGTTTGC	0.19
GTTAGCACGTGTCTTT	-0.08
ATTATCACGTGGAGGG	0.11
TATAACACGTGGTCTT	-0.02
GAATTCACGTGGGTGC	0.24
AGATTCACGTGGTACG	0.18
GAAGGCACGTGAGGTT	0.17
GGGGCCACGTGGGTTC	-0.13
GGGGGCACGTGCTCAT	-0.09
TGGGCCACGTGTTCAG	0
TCAGGCACGTGTGGTA	-0.03
GGTTGCACGTGGTTTC	0.15
GTATACACGTGGGCTG	-0.19
CAAAACACGTGGGGGT	-0.03
GTGGTCACGTGTTCGT	0.27
GTTTGCACGTGGTTGA	0.06
GGATGCACGTGATGCT	0.11
CTTAGCACGTGAGCGG	-0.02
AGAATCACGTGGGGAG	-0.05
GATCACACGTGTTGGG	0.13
TTGTTCACGTGTAAAA	0.28
CAAGTCACGTGTATGG	0.02
AGAATCACGTGTGAGT	0.12
GATGACACGTGTTTTA	0.13
GATAACACGTGTTAGT	0.02

Sequence	relative binding free energy [kcal/mol]
CGTGTCACGTGTTACT	0.09
TGATACACGTGGTGTC	-0.11
ATCGTCACGTGATGTA	0.23
GTAGGCACGTGTATTA	0.09
GTGTACACGTGGACGA	0.13
TTGCTCACGTGTGGTG	0.33
TGTATCACGTGAAGAG	0.26
GAGTACACGTGGTTGA	0.11
GTGTGCACGTGTAGTG	0.05
TTGGTCACGTGGACGG	0.18
ATTATCACGTGTGTCA	0.12
ATTCGCACGTGAGCGT	0.26
AATGCCACGTGTTGTT	-0.04
ACGTGCACGTGGGCGT	-0.21
ACGTCCACGTGTTTGG	0.12
TAATTCACGTGATTTT	0.38
GTGCTCACGTGTCTTT	0.3
ATCTTCACGTGGTTAT	0.14
ATTTTCACGTGGAGCA	0.29
CGTATCACGTGGGTCT	0.02
ATAGCCACGTGTGTGT	-0.15
GTGTCCACGTGATGGG	0.33
TTAGACACGTGGACGT	0.11
TGTAGCACGTGGTGAT	-0.1
GTCTTCACGTGTAGTA	0.35
AGGGCCACGTGTGAGA	0.04

Sequence	relative binding free energy [kcal/mol]
TGTTACACGTGGATGC	0.12
TTTCGCACGTGTTGGC	0.14
GAATTCACGTGTGCTT	0.46
GATGTCACGTGTATGA	0.02
TGAAGCACGTGGTTTG	-0.1
GAATTCACGTGGTAGA	0.27
TTAGACACGTGTTAAG	-0.05
TCGGGCACGTGGTGCT	-0.2
CTTGTCACGTGTGAGA	0.21
GGCGGCACGTGGTTAG	-0.02
GGGCGCACGTGTTAGT	-0.02
TCATTCACGTGGTGGA	0.17
TAAATCACGTGGGTGC	-0.06
CTTCACACGTGGGTGG	-0.12
GTGTGCACGTGGTAGG	-0.04
ACAGTCACGTGTTGGT	0.12
AACTTCACGTGGGGGC	0.15
TTTTGCACGTGGAGAC	-0.02
AAAGGCACGTGGTGCT	-0.08
GGTTTCACGTGTACGC	0.44
GGTGTCACGTGTGGAT	0.23
GGGGACACGTGGACGT	0.03
